These are yes or no findings as the source states them, for the method shown. In cells and extracts the contact can be indirect. Some entries that bind do so weakly or less than the wild type. Sequences can lack the tags named with a protein.
Tests used:
[1] = target: T1, Myc-tagged extracellular segment (amino acid: 21-239) of IL-7Rα (mouse) (UniProt P16872); assay: co-IP; Myc-tagged IL-7Rα segment and Flag-tagged CCP2 co-transfected in 293T cells for 36 h; lysates immunoprecipitated with anti-Myc antibody
T1 sequence: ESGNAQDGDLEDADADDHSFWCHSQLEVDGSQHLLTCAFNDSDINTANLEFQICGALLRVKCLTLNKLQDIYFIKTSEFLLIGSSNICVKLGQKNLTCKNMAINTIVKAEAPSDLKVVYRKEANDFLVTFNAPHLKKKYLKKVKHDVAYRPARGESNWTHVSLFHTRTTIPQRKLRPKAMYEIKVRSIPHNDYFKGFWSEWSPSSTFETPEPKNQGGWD

[2] = target: T2, Myc-tagged intracellular segment (amino acid: 265-459) of IL-7Rα (mouse) (UniProt P16872); assay: as above
T2 sequence: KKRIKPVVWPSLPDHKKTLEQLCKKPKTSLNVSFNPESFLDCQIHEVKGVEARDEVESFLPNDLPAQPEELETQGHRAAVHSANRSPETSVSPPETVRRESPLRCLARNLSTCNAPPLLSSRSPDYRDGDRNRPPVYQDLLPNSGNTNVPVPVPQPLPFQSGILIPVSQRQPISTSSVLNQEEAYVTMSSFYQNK

[3] = target: T3, MBP-tagged enzymatically inactive CCP2 mutant (H425S and E428Q) (mouse) (UniProt Q8CDK2); assay: pull-down; MBP-CCP2-wt or MBP-CCP2-mut incubated with BM lysates; only the target purified
T3 sequence: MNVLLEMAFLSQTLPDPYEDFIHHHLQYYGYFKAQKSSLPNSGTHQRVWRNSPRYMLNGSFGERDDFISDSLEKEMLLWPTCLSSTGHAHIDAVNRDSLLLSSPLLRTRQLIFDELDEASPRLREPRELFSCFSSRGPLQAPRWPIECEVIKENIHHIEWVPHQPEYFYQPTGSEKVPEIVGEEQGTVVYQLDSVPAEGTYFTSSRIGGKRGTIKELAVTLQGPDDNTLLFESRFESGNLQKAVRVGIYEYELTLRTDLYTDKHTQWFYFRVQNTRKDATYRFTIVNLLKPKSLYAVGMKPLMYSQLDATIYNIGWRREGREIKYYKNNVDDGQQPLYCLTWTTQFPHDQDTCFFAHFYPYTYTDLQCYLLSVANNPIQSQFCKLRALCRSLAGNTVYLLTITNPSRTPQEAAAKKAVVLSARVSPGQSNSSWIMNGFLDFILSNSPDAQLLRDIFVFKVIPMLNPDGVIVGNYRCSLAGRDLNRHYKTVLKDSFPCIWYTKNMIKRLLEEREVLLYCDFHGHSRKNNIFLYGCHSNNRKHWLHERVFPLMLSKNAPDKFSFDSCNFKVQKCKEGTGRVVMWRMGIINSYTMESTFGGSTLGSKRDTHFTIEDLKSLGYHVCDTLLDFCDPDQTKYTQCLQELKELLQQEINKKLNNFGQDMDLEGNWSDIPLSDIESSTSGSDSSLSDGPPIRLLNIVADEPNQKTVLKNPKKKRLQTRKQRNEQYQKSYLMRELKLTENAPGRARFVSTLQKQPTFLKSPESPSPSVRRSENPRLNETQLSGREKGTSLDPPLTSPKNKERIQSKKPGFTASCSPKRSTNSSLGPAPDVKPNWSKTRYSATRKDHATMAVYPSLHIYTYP

[4] = target: T4, MBP-tagged wild-type CCP2 (enzymatically active) (mouse) (UniProt Q8CDK2); assay: as above
T4 sequence: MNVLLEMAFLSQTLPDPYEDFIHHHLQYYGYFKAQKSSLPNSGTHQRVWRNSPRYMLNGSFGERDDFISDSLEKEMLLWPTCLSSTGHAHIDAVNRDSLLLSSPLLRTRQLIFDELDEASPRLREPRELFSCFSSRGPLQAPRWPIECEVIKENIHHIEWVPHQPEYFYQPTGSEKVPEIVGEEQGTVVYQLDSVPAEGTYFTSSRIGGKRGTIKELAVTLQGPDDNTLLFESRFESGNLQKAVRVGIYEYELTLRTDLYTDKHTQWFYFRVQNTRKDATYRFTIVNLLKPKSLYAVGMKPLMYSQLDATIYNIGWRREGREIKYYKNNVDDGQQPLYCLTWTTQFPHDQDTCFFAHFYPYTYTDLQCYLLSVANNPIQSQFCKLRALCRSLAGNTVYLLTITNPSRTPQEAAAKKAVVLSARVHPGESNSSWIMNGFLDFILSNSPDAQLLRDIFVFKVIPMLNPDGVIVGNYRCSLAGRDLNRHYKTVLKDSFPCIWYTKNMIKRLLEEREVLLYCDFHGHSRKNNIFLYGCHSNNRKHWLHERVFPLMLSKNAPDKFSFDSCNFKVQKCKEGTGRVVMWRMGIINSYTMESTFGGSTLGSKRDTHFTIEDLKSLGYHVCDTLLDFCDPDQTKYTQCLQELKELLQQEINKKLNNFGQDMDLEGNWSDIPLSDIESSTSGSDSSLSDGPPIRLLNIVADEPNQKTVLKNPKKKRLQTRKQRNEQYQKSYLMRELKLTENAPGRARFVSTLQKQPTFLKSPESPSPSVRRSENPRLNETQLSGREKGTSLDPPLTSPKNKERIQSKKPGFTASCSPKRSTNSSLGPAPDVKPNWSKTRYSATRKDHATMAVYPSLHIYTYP

[5] = target: T5, Flag-tagged TTLL13 (mouse) (UniProt A4Q9F6); assay: co-IP; Myc-IL-7Rα with Flag-TTLL4 or Flag-TTLL13 co-transfected in 293T cells for 36 h, followed by immunoblotting
T5 sequence: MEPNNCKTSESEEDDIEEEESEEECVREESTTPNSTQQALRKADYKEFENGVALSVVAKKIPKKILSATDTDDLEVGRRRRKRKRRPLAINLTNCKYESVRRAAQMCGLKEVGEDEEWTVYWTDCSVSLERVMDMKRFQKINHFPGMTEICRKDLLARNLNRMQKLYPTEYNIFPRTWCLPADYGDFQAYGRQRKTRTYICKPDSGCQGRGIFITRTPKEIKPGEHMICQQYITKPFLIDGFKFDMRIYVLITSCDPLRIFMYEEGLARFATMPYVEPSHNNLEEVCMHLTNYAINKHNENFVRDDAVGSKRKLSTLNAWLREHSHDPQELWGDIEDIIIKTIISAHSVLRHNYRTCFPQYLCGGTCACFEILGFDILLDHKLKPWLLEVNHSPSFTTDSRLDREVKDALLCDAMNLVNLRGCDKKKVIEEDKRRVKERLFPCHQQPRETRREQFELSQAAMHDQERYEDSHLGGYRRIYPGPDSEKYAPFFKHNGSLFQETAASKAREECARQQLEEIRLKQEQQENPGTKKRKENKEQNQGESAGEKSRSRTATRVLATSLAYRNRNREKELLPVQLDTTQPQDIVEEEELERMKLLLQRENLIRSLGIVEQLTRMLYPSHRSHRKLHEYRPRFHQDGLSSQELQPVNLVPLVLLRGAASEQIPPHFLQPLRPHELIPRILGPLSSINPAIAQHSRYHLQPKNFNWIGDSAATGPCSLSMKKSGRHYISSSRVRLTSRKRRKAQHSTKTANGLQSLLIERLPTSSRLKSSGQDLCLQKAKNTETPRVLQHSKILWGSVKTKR

[6] = target: T6, Flag-tagged TTLL4 (mouse) (UniProt Q80UG8); assay: as above
T6 sequence: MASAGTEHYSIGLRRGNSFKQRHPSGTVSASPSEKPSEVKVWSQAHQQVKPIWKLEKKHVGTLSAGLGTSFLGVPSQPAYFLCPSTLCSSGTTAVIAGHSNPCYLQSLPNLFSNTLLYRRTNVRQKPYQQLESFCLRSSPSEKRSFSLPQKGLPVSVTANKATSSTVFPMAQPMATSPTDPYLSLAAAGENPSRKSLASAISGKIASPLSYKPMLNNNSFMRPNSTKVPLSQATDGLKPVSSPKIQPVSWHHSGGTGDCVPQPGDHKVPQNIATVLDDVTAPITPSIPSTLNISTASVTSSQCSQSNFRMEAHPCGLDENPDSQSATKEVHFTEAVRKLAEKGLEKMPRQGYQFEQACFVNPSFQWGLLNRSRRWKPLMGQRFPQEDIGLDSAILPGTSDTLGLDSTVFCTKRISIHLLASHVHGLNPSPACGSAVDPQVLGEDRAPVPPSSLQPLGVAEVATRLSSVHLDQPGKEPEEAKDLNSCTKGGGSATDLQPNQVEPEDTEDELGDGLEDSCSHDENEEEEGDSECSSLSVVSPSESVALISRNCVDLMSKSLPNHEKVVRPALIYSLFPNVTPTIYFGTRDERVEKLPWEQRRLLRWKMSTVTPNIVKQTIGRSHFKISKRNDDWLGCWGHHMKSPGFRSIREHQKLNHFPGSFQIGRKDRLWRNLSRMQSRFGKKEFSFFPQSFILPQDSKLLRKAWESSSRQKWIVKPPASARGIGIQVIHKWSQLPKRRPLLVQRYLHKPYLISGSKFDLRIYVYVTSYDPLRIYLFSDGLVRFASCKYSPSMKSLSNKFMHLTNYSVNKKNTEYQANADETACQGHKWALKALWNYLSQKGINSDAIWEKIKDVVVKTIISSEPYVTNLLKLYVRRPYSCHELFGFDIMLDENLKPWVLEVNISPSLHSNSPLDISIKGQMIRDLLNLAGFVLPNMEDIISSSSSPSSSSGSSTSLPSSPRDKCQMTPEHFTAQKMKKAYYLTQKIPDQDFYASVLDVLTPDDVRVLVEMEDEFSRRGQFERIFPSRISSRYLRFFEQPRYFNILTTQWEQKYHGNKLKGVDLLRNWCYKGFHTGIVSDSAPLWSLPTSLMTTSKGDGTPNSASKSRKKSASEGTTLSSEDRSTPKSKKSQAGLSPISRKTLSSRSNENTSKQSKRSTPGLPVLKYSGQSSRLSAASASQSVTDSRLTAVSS

B1: Flag-tagged enzymatic dead CCP2 (H425S and E428Q) (enzyme, UniProt Q8CDK2 1-862)
chain: MNVLLEMAFLSQTLPDPYEDFIHHHLQYYGYFKAQKSSLPNSGTHQRVWRNSPRYMLNGSFGERDDFISDSLEKEMLLWPTCLSSTGHAHIDAVNRDSLLLSSPLLRTRQLIFDELDEASPRLREPRELFSCFSSRGPLQAPRWPIECEVIKENIHHIEWVPHQPEYFYQPTGSEKVPEIVGEEQGTVVYQLDSVPAEGTYFTSSRIGGKRGTIKELAVTLQGPDDNTLLFESRFESGNLQKAVRVGIYEYELTLRTDLYTDKHTQWFYFRVQNTRKDATYRFTIVNLLKPKSLYAVGMKPLMYSQLDATIYNIGWRREGREIKYYKNNVDDGQQPLYCLTWTTQFPHDQDTCFFAHFYPYTYTDLQCYLLSVANNPIQSQFCKLRALCRSLAGNTVYLLTITNPSRTPQEAAAKKAVVLSARVSPGQSNSSWIMNGFLDFILSNSPDAQLLRDIFVFKVIPMLNPDGVIVGNYRCSLAGRDLNRHYKTVLKDSFPCIWYTKNMIKRLLEEREVLLYCDFHGHSRKNNIFLYGCHSNNRKHWLHERVFPLMLSKNAPDKFSFDSCNFKVQKCKEGTGRVVMWRMGIINSYTMESTFGGSTLGSKRDTHFTIEDLKSLGYHVCDTLLDFCDPDQTKYTQCLQELKELLQQEINKKLNNFGQDMDLEGNWSDIPLSDIESSTSGSDSSLSDGPPIRLLNIVADEPNQKTVLKNPKKKRLQTRKQRNEQYQKSYLMRELKLTENAPGRARFVSTLQKQPTFLKSPESPSPSVRRSENPRLNETQLSGREKGTSLDPPLTSPKNKERIQSKKPGFTASCSPKRSTNSSLGPAPDVKPNWSKTRYSATRKDHATMAVYPSLHIYTYP
[1]
  binding: no binding
[2]
  binding: binds

B2: native IL-7Rα from mouse bone marrow lysates (receptor, UniProt P16872 21-459)
chain: ESGNAQDGDLEDADADDHSFWCHSQLEVDGSQHLLTCAFNDSDINTANLEFQICGALLRVKCLTLNKLQDIYFIKTSEFLLIGSSNICVKLGQKNLTCKNMAINTIVKAEAPSDLKVVYRKEANDFLVTFNAPHLKKKYLKKVKHDVAYRPARGESNWTHVSLFHTRTTIPQRKLRPKAMYEIKVRSIPHNDYFKGFWSEWSPSSTFETPEPKNQGGWDPVLPSVTILSLFSVFLLVILAHVLWKKRIKPVVWPSLPDHKKTLEQLCKKPKTSLNVSFNPESFLDCQIHEVKGVEARDEVESFLPNDLPAQPEELETQGHRAAVHSANRSPETSVSPPETVRRESPLRCLARNLSTCNAPPLLSSRSPDYRDGDRNRPPVYQDLLPNSGNTNVPVPVPQPLPFQSGILIPVSQRQPISTSSVLNQEEAYVTMSSFYQNK
[3]
  binding: binds
[4]
  binding: no binding

B3: Myc-tagged intracellular segment (amino acid: 265-459) of IL-7Rα (domain or fragment, UniProt P16872 265-459)
chain: KKRIKPVVWPSLPDHKKTLEQLCKKPKTSLNVSFNPESFLDCQIHEVKGVEARDEVESFLPNDLPAQPEELETQGHRAAVHSANRSPETSVSPPETVRRESPLRCLARNLSTCNAPPLLSSRSPDYRDGDRNRPPVYQDLLPNSGNTNVPVPVPQPLPFQSGILIPVSQRQPISTSSVLNQEEAYVTMSSFYQNK
[5]
  binding: binds
[6]
  binding: binds

Source: article PMC5550436
